Assay results published in PubChem BioAssay AID485297 (National Center for Advancing Translational Sciences (NCATS), 2010).
Screen size: about 320,000 compounds; about 9,100 (2.8%) were called active. This list was built around the results that the source calls inconclusive (neither active nor inactive); the mix of calls is not that of the screen. The call rests on the fitted dose curve; in most records, active means well fitted activation curve with a large enough effect; inconclusive means small, poorly fitted or top-dose-only effect; inactive means no such curve, though single readings can be large or run the other way. Potencies of inconclusive entries are left out as doubtful fits.

experiment: qHTS Assay for Rab9 Promoter Activators; conditions: Huh7 Rab9 promoter-luciferase reporter, luminescence, 24 h; series mostly up to 9.22 µM; further: nearly all actives have a fitted effect of over 60% in size
Method in brief: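 Luminescence from Amplite-detected luciferase (10 minutes, ambient) reports Rab9 promoter activation. Before that, stable Rab9-luciferase Huh7 cells (1500/well, reduced-serum OP-MEM I plus 10% FBS) were exposed to compound for 24 hours at 37C.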
Potency means the concentration at half of the fitted maximal effect; tags describe the fitted curve by direction and shape.

| SMILES | Potency |
| --- | --- |
| COc1ccccc1-c1c(-c2ccc(O)cc2O)n[nH]c1C(F)(F)F | inactive |
| CC(C)(C)c1ccc(NC(=O)COC(=O)C2=COCCO2)cc1 | inconclusive [activator, partial curve] |
| Cc1ccc(NC(=O)c2cccnc2)cc1C | inconclusive [activator, partial curve] |
| CC1(C)Cc2c(sc(NC(=O)c3ccc4ncsc4c3)c2C(N)=O)C(C)(C)N1 | inconclusive [activator, single point] |
| C=CCC1CCC/C(=N\NS(=O)(=O)c2ccc(C)cc2)C1 (stereo not given) | inactive |
| COc1cc(/C=C/C(C)=O)cc(OC)c1OC | inactive |
| Cc1nc2ccc(NC(=O)c3ccc([N+](=O)[O-])cc3)cc2[nH]1 | inconclusive [activator, partial curve] |
| CCC(=O)N1c2ccccc2NC2=C(C(=O)CCC2)C1c1ccc(N(C)C)cc1 (stereo not given) | inconclusive [activator, partial curve] |
| C/C(=N\NC(=O)c1ccccc1)c1ccc(N2CCCCC2)cc1 | inconclusive [activator, single point] |
| N/C(Cn1cncn1)=N\OC(=O)c1ccc(Cl)cc1 | inactive |
| C/C(=N\NC(=O)c1nn(C)c(C)c1Br)c1ccc(NC(=O)c2ccc(C)s2)cc1 | inconclusive [activator, full curve, poor fit] |
| N/C(Cc1cccs1)=N\OC(=O)COc1ccc(Cl)cc1Cl | inactive |
| CC(=O)c1cccc(OCc2cc(C(=O)N(C)Cc3ccc(C)o3)no2)c1 | inconclusive [activator, partial curve] |
| O=C(CSc1nc2ccccc2o1)Nc1ccc(N2CCOCC2)cc1 | inconclusive [activator, partial curve] |
| Nc1nc(N)nc(-c2ccc(Cl)cc2)n1 | inconclusive [activator, partial curve, poor fit] |
| Cc1ccccc1Nc1ncnc2c1cnn2-c1ccccc1 | inconclusive [activator, partial curve] |
| CC(NC(=O)CN1C(=O)NC2(CCCC2)C1=O)c1ccc2ccccc2c1 (stereo not given) | inactive |
| O=C(CCSCc1ccccc1Cl)N1CCN(c2ccccn2)CC1 | inconclusive [activator, partial curve] |
| O=C(Nc1ccccc1)n1ccc(-c2ccc(-n3ccnc3)cc2)n1 | inconclusive [activator, partial curve] |
| CN1CCN(c2ccc(NC(=O)c3sc4ccccc4c3Cl)cc2)CC1 | active: 1 µM |
| Cc1ccsc1/C=N/NC(=O)c1ccc(-n2cccc2)cc1 | inconclusive [activator, partial curve] |
| CSc1ccc(C2c3[nH]c4ccccc4c3CCN2C(=O)c2ccnn2C)cc1 (stereo not given) | active: 3.55 µM |
| C/C(=N/NC(=O)c1ccncc1)c1ccccc1 | inactive |
| O=C(Nc1ccccc1)c1ccc(NCCN2C(=O)CCC2=O)c([N+](=O)[O-])c1 | inactive |
| CC12CCC(C(=O)Nc3ccncc3)(CC1O)C2(C)C (stereo not given) | inactive |

| SMILES | Potency |
| --- | --- |
| O=C(CCCN1C(=O)/C(=C/c2cccs2)SC1=S)Nc1cc([N+](=O)[O-])ccc1O | inactive |
| c1ccc2oc(SCc3cn4ccccc4n3)nc2c1 | active: 1.12 µM |
| CN(Cc1ccccc1)C(=O)COc1ccc(C(C)(C)C)cc1 | inconclusive [activator, single point] |
| Cc1cc(NC(=O)c2cncc(Br)c2)ccc1NC(=O)c1cc2ccccc2o1 | inactive |
| C/C(N)=C(/C#N)C(=O)CSc1nnc(Nc2cccc(C)c2)s1 | inconclusive [activator, partial curve] |
| O=C(CCc1ccccc1)c1ccc2c(c1)OCCCO2 | active: 0.631 µM |
| Clc1nc2ccccc2cc1/C=N/Nc1nc2ccccc2[nH]1 | active: 2.51 µM |
| Cn1c(=O)n(C)c2cc3[nH]cnc3cc21 | inactive |
| CCc1nnc(NC(=O)C23CC4CC(CC(C4)C2)C3)s1 | inconclusive [activator, single point] |
| O=C(N/N=C/c1ccc(F)cc1)c1cccc(NC(=O)c2ccccc2Cl)c1 | inactive |
| CN(C)c1nc(-c2ccc([N+](=O)[O-])cc2)cs1 | inconclusive [activator, single point] |
| COc1ccc(-c2nc(Cn3c(SCc4ccc(C)cc4)nc4ccncc43)c(C)o2)cc1OC | inconclusive [activator, partial curve] |
| O=C(NC1CCCC1)c1cc2c(=O)n3ccccc3nc2s1 | inconclusive [activator, single point] |
| Cc1ccc(C(=O)Oc2oc(-c3ccccc3)nc2C=Nc2ccc(N(C)C)cc2)cc1 | inconclusive [activator, partial curve] |
| COC(=O)c1sccc1NC(=O)Cc1ccc(OC)cc1 | inactive |
| CC(=O)c1sc(Nc2nc3cc4c(cc3s2)OCO4)nc1C | active: 2 µM |
| Cc1ccc(S(=O)(=O)N(C)C)cc1NC(=O)c1ccncc1 | inconclusive [activator, single point] |
| COc1ccc(-c2cc(C(=O)N3CCCC3)c3ccccc3n2)cc1 | inconclusive [activator, partial curve] |
| Cc1ccc(S(C)(=O)=O)cc1C(=O)Nc1ccc(S(=O)(=O)Nc2nccs2)cc1 | inactive |
| CCN(CC)S(=O)(=O)c1cc(C(=O)Oc2cccc(-c3cnc4ccccc4n3)c2)ccc1OC | inconclusive [activator, single point] |
| CCOC(=O)N1CCN(S(=O)(=O)c2ccc(C)cc2)C1c1ccc(OC)cc1 (stereo not given) | inactive |
| Cc1cc(NC(=O)c2cc(-c3ccc(O)cc3)on2)no1 | inconclusive [activator, single point] |
| CN(C)S(=O)(=O)c1cccc(NC(=O)c2ccc3c(c2)OCCO3)c1 | inconclusive [activator, partial curve] |
| Cc1cc(C)c(C(=O)CN2C(=O)NC3(CCCCC3)C2=O)cc1C | inconclusive [activator, single point] |
| COc1ccc(-c2csc(N)n2)cc1F | inconclusive [activator, partial curve] |

| SMILES | Potency |
| --- | --- |
| O=C(O)c1ccc(-c2ccc(OS(=O)(=O)c3ccccc3F)cc2)cc1 | inconclusive [activator, single point] |
| C=CCNC(=O)N1CCCC(C(=O)c2cccc(OC(C)C)c2)C1 (stereo not given) | active: 3.55 µM |
| NC(=O)c1cc(C(=O)Cc2ccc(Cl)cc2)c[nH]1 | inconclusive [activator, single point] |
| Cc1cc(C)c2sc(NC(=O)C3CC3)nc2c1 | inconclusive [activator, partial curve] |
| COc1ccc(-n2ncc3c(NCCCN4CCOCC4)ncnc32)cc1 | inconclusive [activator, partial curve] |
| Cc1ccc(-c2cc(C(=O)NCc3ccccn3)no2)cc1 | inconclusive [activator, single point] |
| O=C(Nc1ccccn1)c1ccc2c(=O)n3c(nc2c1)CCCCC3 | active: 0.562 µM |
| Cc1c(C(=O)OCC(=O)N(C)c2ccccc2)oc2ccccc12 | inconclusive [activator, partial curve] |
| COc1ccc(-c2cc(CCCC(=O)NCCc3cc(OC)ccc3OC)no2)cc1 | inconclusive [activator, single point] |
| O=C(CSc1nnc2ccccn12)Nc1cccc(-c2nc3ccccc3s2)c1 | inconclusive [activator, single point] |
| CN(C)/C=C/C(=O)c1cnc(-c2cccc(Cl)c2)s1 | active: 1.26 µM |
| COc1ccccc1NC(=O)C(C)OC(=O)c1cccc(-n2cnnn2)c1 (stereo not given) | inactive |
| CC(C)(C)N=C1NN=C(c2cc3ccccc3o2)CS1 | active: 0.398 µM |
| Cc1cc(=O)[nH]c(S/C=C/c2ccccc2)n1 | inconclusive [activator, single point] |
| O=c1c2[nH]c3ccccc3c2ncn1CCC1=CCCCC1 | inconclusive [activator, partial curve] |
| Cc1ccc(CNc2ccc3c(c2)nc(C)n3C)cc1 | active: 0.631 µM |
| O=C(CSc1nc2ccccc2[nH]1)Nc1nc(-c2ccc(Br)cc2)cs1 | inactive |
| O=C(NCc1cccs1)c1cc(-c2cccc(Cl)c2)on1 | inconclusive [activator, partial curve] |
| CC(C)c1ccc(NC(=O)[C@@H]2CCC(=O)N2C2OC(=O)c3ccccc32)cc1 (stereo not given in full) | inconclusive [activator, partial curve] |
| COc1cccc(-c2cc(C(=O)NCC3CCCO3)on2)c1 (stereo not given) | inconclusive [activator, partial curve] |
| Cc1ccc(NC(=O)n2ccc(-c3ccc(-n4ccnc4)cc3)n2)cc1 | active: 3.98 µM |
| Cc1cccc(NC(=O)CNC(=O)CN2C(=O)NC3(CCc4ccccc43)C2=O)c1C (stereo not given) | inactive |
| O=C(Nc1ccccc1F)c1ccc(Cn2cc(Br)cn2)cc1 | inconclusive [activator, single point] |
| CCOC(=O)c1sc(-c2cccc([N+](=O)[O-])c2)cc1N | inconclusive [activator, single point] |
| CCCCn1nc(C(=O)Nc2nc3c(s2)CCCC3)c2ccccc2c1=O | inactive |
